Test results taken from paper PMC12136788.
This is one part of the list.

T1: UNK ZnF1-3 (human, UniProt Q9C0B0 31-174)
T1 sequence: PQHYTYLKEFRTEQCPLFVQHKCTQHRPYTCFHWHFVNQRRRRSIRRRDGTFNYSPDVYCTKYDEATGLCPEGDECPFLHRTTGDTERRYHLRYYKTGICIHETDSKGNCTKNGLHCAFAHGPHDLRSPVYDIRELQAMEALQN

B1: chr8:104447970:104447971:+_ENSG00000164934_ENST00000297579|hu_hu|hu_hu_hu_mus_False|1_98 (ssRNA)
RNA: GGGAGUUCUACAGUCCGACGAUCAUACACUUCCCUGCUUCGACUUUUGUCCACAGGAAAGAUUCUAAUAGACUUAUCAAAGCUGGCAGACACAAAUUCCUUCCCAGUGGGAGAGUAGUCCACAUCAAGUACUGCAGAUACAUGCAACAGAGGAUUGAGCAUCA
B2: chr5:145543945:145543946:-_ENSG00000133706_ENST00000545646|hu_hu|hu_hu_hu_mus_True|1_58 (ssRNA)
RNA: GGGAGUUCUACAGUCCGACGAUCCUGAACGGCCAGUGGUGGGAAAUAAUCAAGCCAGUGCUCUGCUUCAGAAAACUUUACUAUCUCGUCAUCAGAGAGCCCAAGGGAUUUCAUAAUGUCCCACUGGUACUUAGAAGAUCCAGCCAACAGAGGAUUGAGCAUCA
B3: 179970342_179970462_6631_3pUTR_ENSG00000187231_ENST00000428443|human|control|control (ssRNA)
RNA: GGGAGUUCUACAGUCCGACGAUCAGGAUAAAGAAUACUCUAUUUUUUAUUCUGAAAAGAUAAUUAUAGCAAUGAUACCUUCCAUUCUGUUUAUUUCUGGAUAUUUUGGCUUCAACAAUUCUUUAUAUCAUAUUUUAUUCUUGACAACAGAGGAUUGAGCAUCA
B4: 115252300_115256491_533_CDS_ENSG00000213281_ENST00000369535|human|control|control (ssRNA)
RNA: GGGAGUUCUACAGUCCGACGAUCUAGCACCAUAGGUACAUCAUCCGAGUCUUUUACUCGCUUAAUCUGCUCCCUGUAGAGGUUAAUAUCCGCAAAUGACUUGCUAUUAUUGAUGGCAAAUACACAGAGGAAGCCUUCGCCUGUCAACAGAGGAUUGAGCAUCA
B5: chr7:28421298:28421299:+_ENSMUSG00000004056_ENSMUST00000051356|mus_mus|FALSE|FALSE (ssRNA)
RNA: GGGAGUUCUACAGUCCGACGAUCCAUCAUCUCAUACAUGACCACACCCAGCCCCCACCAGUCCACUGCUCGCCCAUAGUCAUUGUCCUCUAGCACCUCAGGCGCCAAGUACUCCGGGGUACCACAGAAGGUUUUCAUGGUGGCCAACAGAGGAUUGAGCAUCA
B6: chr4:144460044:144460045:+_ENSG00000153147_ENST00000283131|hu_mus|hu_hu_hu_mus_False|58_78 (ssRNA)
RNA: GGGAGUUCUACAGUCCGACGAUCACGGUCCAUAGCCUGAAGAUCAACUUGCGGAUUCCAAUCAGAAUCAUAUAAAAUUACUACAUCAGCAGUUGCAAGAUUGAUGCCCAGACCACCAGCACGUGUGCUUAGCAUAAAUACAAACAACAGAGGAUUGAGCAUCA
B7: chr7:102944291:102944292:+_ENSG00000105819_ENST00000453466|hu_mus|motif|central (ssRNA)
RNA: GGGAGUUCUACAGUCCGACGAUCCUCAAUCUCUGCUUCUCCCAGUGUGCUGUUCUGAAUUAUGUCAGCAAGAAUUUCGGCAGCUCUGGGCAAAUCUCUCGAGAAUGCUUUGGCGUAGUAGACAGUCUGCUCUCUGGAGGUAUACAACAGAGGAUUGAGCAUCA
B8: chr1:66480114:66480115:+_ENSMUSG00000015222_ENSMUST00000024639|mus_hu|mus_mus_mus_hu_True|28_108 (ssRNA)
RNA: GGGAGUUCUACAGUCCGACGAUCUGGCCUGUGACGGAUGUUCUUCAGAGAGCCACAUUUGGAUGUCACAUGGCUUAGGUCUAUUUUCUUGGUAACAAUUUGUACCUGACCCCCCUUAGGCUGGUAUUUGAUGUUGUCUGUUGACAACAGAGGAUUGAGCAUCA
B9: chr1:163138135:163138136:-_ENSG00000143248_ENST00000313961|hu_hu|FALSE|FALSE (ssRNA)
RNA: GGGAGUUCUACAGUCCGACGAUCAUUGUACGGAAUGACAAGGUCACCAACUGAGUCUGGCUUCUGGAGGAGAAUUCCCAACUUGAUCUUAAUCUCCUUGGCCCUUUCCAGGCAUGAGUGGGGCAAAGCUGCAAGUCCUUUGCACAACAGAGGAUUGAGCAUCA
B10: chrX:98862621:98862622:+_ENSMUSG00000034160_ENSMUST00000044475|mus_hu|mus_mus_mus_hu_False|8_28 (ssRNA)
RNA: GGGAGUUCUACAGUCCGACGAUCCUGCAUCUCCUUUAGAGUGUUUCCCAUAUUAGAGUAGGCAUCAGCAAAGGUAGGACUGAUUCGAAUAGCCUCCUUAUAAUGCAUCAGUGCUUCCUGCAGUUUUCCCUGCUGUUGCAGUACCAACAGAGGAUUGAGCAUCA
B11: chr18:60570258:60570259:+_ENSG00000081913_ENST00000262719|hu_mus|FALSE|FALSE (ssRNA)
RNA: GGGAGUUCUACAGUCCGACGAUCCUUAUUGUCUCGCAGGUCAAGCUGAGUGACAUGUUGCACAAAGUCCACCUCAUCUGCCAUAAGCUUUCUGAGUAUGUUCAGUCUUAGGUCCACAUGUUUAAUAUGAGGCAUUCUUCUUAACAACAGAGGAUUGAGCAUCA
B12: 57924663_57924783_1331_CDS_ENSMUSG00000003226_ENSMUST00000003310|mouse|control|control (ssRNA)
RNA: GGGAGUUCUACAGUCCGACGAUCUCUAGCCAAGUCAUCAGGGUCUGGCACUUGUCCAUCAAGGUUUCCAAUAUCAUCAUUCCCAAGAAAGGAUCUCUCCUUGGAUGACUGACUGGAAAACAGAGCAUCACAGAGAGCAGACUGCAACAGAGGAUUGAGCAUCA
B13: chrX:53596632:53596633:-_ENSG00000086758_ENST00000262854|hu_hu|FALSE|FALSE (ssRNA)
RNA: GGGAGUUCUACAGUCCGACGAUCGGCAUGUUUCUCUGUACUCUCAGCCAUAGCCAGUGCCCGUCCAAGGGCUGCUUUUACUUCAUUCACUAGGGCCACCUGGGCAUCUGUGCCACUCCCUGCAGCAGCCAGGCUUGCGAGGAACAACAGAGGAUUGAGCAUCA
B14: 106939881_106942074_2604_CDS_ENSMUSG00000040481_ENSMUST00000057892|mouse|control|control (ssRNA)
RNA: GGGAGUUCUACAGUCCGACGAUCUGUCUCCUCCUCCUCUUGUUUUUUCUCCUUUUUUUUAACUUUCUCUUUUUCUUCCCUUUCAAUUGAUGUCAUCCUAUGUAACCGGGUAUGUCCUAGAGACUCCCGCCAUAUUGGCAGCAUCAACAGAGGAUUGAGCAUCA

molecular target: T1, UNK ZnF1-3; assay: nsRBNS (natural sequence RNA bind-n-seq); RBNS binding buffer (assumed for nsRBNS): 25 mM Tris pH 7.5, 150 mM KCl, 3 mM MgCl2, 0.01% Triton X-100, 500 ug/ml BSA, 20 U/ml SUPERase-In, 4 C; UNK is unkempt and MSI1 is Musashi-1; names of the RNAs are library labels; protein concentration not given here; high values mean tight binding

Binder	binding signal [enrichment R]
B1	0.883
B2	1.44
B3	0.743
B4	0.975
B5	1.38
B6	1.74
B7	0.784
B8	0.485
B9	1.02
B10	1.1
B11	0.834
B12	1.17
B13	1.05
B14	0.427
